Read-outs that look alike come from different tables or passages of the source.
Assays:
[1] = molecular target: T1, calmodulin (CaM) ( (mammalian), UniProt P0DP23); experiment: SEC-MALS
[2] = molecular target: T1, calmodulin (CaM); experiment: composition gradient multi-angle light scattering
[3] = molecular target: T1, calmodulin (CaM); experiment: composition gradient multi-angle light scattering; remark: listed apart in the source

B1: SK peptide (SKp), tagless recombinant fragment […] of the small-conductance Ca2+-activated K+ channel SK2 (KCa2.2) (domain or fragment)
chain: not shown
modifications: small amount of modification (minor peaks +179 and +258 D), consistent with gluconoylation at the N terminus
For B1, the “stoichiometry N” value [1] was 1, the Kd [2] was 0.6 nM and the Kd [3] was 0.06 nM.

Reference: paper PMC4001768 (The Journal of General Physiology, 2014)
